Results are given in words; binding and its absence hold for the method and conditions named. For some of these results: In cells and extracts the contact can be indirect. Some results given as binding are weak or reduced against the parent protein; the word gives no strength. Where a sequence is shown, tags or fusion partners need not be part of it.
T1: GFP-hGS15 (human) (UniProt Q9NYM9)
T1 sequence: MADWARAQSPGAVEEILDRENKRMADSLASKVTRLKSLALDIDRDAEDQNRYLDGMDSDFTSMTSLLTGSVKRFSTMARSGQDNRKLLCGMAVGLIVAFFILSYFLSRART

T2: COG8sir 1–136 GFP-ActA (human) (UniProt Q96MW5)
T2 sequence: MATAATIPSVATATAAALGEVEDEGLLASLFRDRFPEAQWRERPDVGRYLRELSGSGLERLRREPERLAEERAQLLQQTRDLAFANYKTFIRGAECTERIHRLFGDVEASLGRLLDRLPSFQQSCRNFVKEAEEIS

T3: hCOG8sir 1–406 GFP-ActA (human) (UniProt Q96MW5)
T3 sequence: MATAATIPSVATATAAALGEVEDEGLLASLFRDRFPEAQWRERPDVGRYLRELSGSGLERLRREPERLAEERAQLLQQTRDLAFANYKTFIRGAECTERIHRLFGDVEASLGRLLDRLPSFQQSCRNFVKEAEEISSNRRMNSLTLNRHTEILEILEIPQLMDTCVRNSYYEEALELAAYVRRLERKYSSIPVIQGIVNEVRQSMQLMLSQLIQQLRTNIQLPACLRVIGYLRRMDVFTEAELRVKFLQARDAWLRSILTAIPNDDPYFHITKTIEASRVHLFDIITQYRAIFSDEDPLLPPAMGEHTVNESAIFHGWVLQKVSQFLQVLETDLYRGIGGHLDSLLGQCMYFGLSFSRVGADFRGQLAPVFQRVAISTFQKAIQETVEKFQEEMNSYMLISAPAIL

T4: hCOG8sir-mCh-ActA (human) (UniProt Q96MW5)
T4 sequence: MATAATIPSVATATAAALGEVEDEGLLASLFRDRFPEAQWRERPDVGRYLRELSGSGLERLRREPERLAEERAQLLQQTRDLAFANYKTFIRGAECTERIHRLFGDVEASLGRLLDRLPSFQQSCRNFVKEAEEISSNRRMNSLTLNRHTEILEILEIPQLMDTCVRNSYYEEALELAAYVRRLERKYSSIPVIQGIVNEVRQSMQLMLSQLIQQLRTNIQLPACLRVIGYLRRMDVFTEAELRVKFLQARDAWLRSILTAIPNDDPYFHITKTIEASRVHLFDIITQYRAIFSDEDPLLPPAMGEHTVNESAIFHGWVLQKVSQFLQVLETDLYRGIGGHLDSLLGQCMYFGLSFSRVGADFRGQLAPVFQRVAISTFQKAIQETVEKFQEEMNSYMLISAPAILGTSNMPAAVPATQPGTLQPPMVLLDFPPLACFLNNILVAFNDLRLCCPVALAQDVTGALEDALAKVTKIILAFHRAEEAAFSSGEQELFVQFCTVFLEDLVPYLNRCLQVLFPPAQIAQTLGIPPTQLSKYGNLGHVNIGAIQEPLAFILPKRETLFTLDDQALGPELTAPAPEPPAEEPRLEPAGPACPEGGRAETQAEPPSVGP

T5: hCOG8sir-GFP-ActA (human) (UniProt Q96MW5)
T5 sequence: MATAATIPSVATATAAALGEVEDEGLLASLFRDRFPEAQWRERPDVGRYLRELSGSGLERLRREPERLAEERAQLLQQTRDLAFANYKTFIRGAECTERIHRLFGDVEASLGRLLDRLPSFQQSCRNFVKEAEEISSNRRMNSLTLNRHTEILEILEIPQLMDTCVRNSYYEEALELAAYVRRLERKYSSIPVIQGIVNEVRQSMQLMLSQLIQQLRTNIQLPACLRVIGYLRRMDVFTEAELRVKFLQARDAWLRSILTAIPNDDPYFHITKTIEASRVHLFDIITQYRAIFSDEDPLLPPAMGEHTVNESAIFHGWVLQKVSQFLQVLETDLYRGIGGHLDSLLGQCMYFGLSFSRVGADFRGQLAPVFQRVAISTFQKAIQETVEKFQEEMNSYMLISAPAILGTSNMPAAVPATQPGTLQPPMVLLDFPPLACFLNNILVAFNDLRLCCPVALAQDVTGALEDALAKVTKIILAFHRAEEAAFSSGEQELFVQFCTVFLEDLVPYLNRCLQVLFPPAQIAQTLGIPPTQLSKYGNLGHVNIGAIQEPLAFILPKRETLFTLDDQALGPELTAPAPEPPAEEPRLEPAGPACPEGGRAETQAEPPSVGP

T6: hCOG8sir Δ8–406 GFP-ActA (human) (UniProt Q96MW5)
T6 sequence: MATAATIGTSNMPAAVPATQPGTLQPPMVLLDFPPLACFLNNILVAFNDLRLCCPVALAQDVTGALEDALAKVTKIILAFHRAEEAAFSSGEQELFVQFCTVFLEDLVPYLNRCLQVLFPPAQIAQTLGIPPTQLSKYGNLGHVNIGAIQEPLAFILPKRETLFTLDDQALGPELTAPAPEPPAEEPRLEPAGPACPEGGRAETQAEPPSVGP


How the values were obtained:
GFP-hGS15 (human) = molecular target: T1, GFP-hGS15 (human); test: co-IP; GFP IP on GBP (GFP binding protein) beads from lysates of transfected HEK293T cells (50 mM Tris pH 7.4, 150 mM NaCl, 1% Triton X-100), 2 h at room temperature; blotted for COG8, Myc and GFP
[1] = molecular target: T2, COG8sir 1–136 GFP-ActA (human); test: mitochondria relocalization assay; COG8 constructs targeted to mitochondria by GFP-ActA or mCherry-ActA co-expressed with 3Myc-tagged COG1 in HeLa cells; fixed 24 h after transfection, stained for Myc, confocal microscopy
[2] = molecular target: T3, hCOG8sir 1–406 GFP-ActA (human); test: as above
[3] = molecular target: T4, hCOG8sir-mCh-ActA (human); test: as above
[4] = molecular target: T5, hCOG8sir-GFP-ActA (human); test: as above
[5] = molecular target: T6, hCOG8sir Δ8–406 GFP-ActA (human); test: as above

Row | Binder | binding (GFP-hGS15 (human)) | binding [1] | binding [2] | binding [3] | binding [4] | binding [5]
1 | COG8 (endogenous, HEK293T) (protein, UniProt Q96MW5 1-612) MATAATIPSVATATAAALGEVEDEGLLASLFRDRFPEAQWRERPDVGRYLRELSGSGLERLRREPERLAEERAQLLQQTRDLAFANYKTFIRGAECTERIHRLFGDVEASLGRLLDRLPSFQQSCRNFVKEAEEISSNRRMNSLTLNRHTEILEILEIPQLMDTCVRNSYYEEALELAAYVRRLERKYSSIPVIQGIVNEVRQSMQLMLSQLIQQLRTNIQLPACLRVIGYLRRMDVFTEAELRVKFLQARDAWLRSILTAIPNDDPYFHITKTIEASRVHLFDIITQYRAIFSDEDPLLPPAMGEHTVNESAIFHGWVLQKVSQFLQVLETDLYRGIGGHLDSLLGQCMYFGLSFSRVGADFRGQLAPVFQRVAISTFQKAIQETVEKFQEEMNSYMLISAPAILGTSNMPAAVPATQPGTLQPPMVLLDFPPLACFLNNILVAFNDLRLCCPVALAQDVTGALEDALAKVTKIILAFHRAEEAAFSSGEQELFVQFCTVFLEDLVPYLNRCLQVLFPPAQIAQTLGIPPTQLSKYGNLGHVNIGAIQEPLAFILPKRETLFTLDDQALGPELTAPAPEPPAEEPRLEPAGPACPEGGRAETQAEPPSVGP | binds | – | – | – | – | –
2 | hCOG1-3Myc (protein, UniProt Q8WTW3 1-980) MATAATSPALKRLDLRDPAALFETHGAEEIRGLERQVRAEIEHKKEELRQMVGERYRDLIEAADTIGQMRRCAVGLVDAVKATDQYCARLRQAGSAAPRPPRAQQPQQPSQEKFYSMAAQIKLLLEIPEKIWSSMEASQCLHATQLYLLCCHLHSLLQLDSSSSRYSPVLSRFPILIRQVAAASHFRSTILHESKMLLKCQGVSDQAVAEALCSIMLLEESSPRQALTDFLLARKATIQKLLNQPHHGAGIKAQICSLVELLATTLKQAHALFYTLPEGLLPDPALPCGLLFSTLETITGQHPAGKGTGVLQEEMKLCSWFKHLPASIVEFQPTLRTLAHPISQEYLKDTLQKWIHMCNEDIKNGITNLLMYVKSMKGLAGIRDAMWELLTNESTNHSWDVLCRRLLEKPLLFWEDMMQQLFLDRLQTLTKEGFDSISSSSKELLVSALQELESSTSNSPSNKHIHFEYNMSLFLWSESPNDLPSDAAWVSVANRGQFASSGLSMKAQAISPCVQNFCSALDSKLKVKLDDLLAYLPSDDSSLPKDVSPTQAKSSAFDRYADAGTVQEMLRTQSVACIKHIVDCIRAELQSIEEGVQGQQDALNSAKLHSVLFMARLCQSLGELCPHLKQCILGKSESSEKPAREFRALRKQGKVKTQEIIPTQAKWQEVKEVLLQQSVMGYQVWSSAVVKVLIHGFTQSLLLDDAGSVLATATSWDELEIQEEAESGSSVTSKIRLPAQPSWYVQSFLFSLCQEINRVGGHALPKVTLQEMLKSCMVQVVAAYEKLSEEKQIKKEGAFPVTQNRALQLLYDLRYLNIVLTAKGDEVKSGRSKPDSRIEKVTDHLEALIDPFDLDVFTPHLNSNLHRLVQRTSVLFGLVTGTENQLAPRSSTFNSQEPHNILPLASSQIRFGLLPLSMTSTRKAKSTRNIETKAQVVPPARSTAGDPTVPGSLFRQLVSEEDNTSAPSLFKLGWLSSMTK | – | binds | binds | binds | binds | no binding
3 | hCOG1 1-702-3Myc (domain or fragment, UniProt Q8WTW3 1-702) MATAATSPALKRLDLRDPAALFETHGAEEIRGLERQVRAEIEHKKEELRQMVGERYRDLIEAADTIGQMRRCAVGLVDAVKATDQYCARLRQAGSAAPRPPRAQQPQQPSQEKFYSMAAQIKLLLEIPEKIWSSMEASQCLHATQLYLLCCHLHSLLQLDSSSSRYSPVLSRFPILIRQVAAASHFRSTILHESKMLLKCQGVSDQAVAEALCSIMLLEESSPRQALTDFLLARKATIQKLLNQPHHGAGIKAQICSLVELLATTLKQAHALFYTLPEGLLPDPALPCGLLFSTLETITGQHPAGKGTGVLQEEMKLCSWFKHLPASIVEFQPTLRTLAHPISQEYLKDTLQKWIHMCNEDIKNGITNLLMYVKSMKGLAGIRDAMWELLTNESTNHSWDVLCRRLLEKPLLFWEDMMQQLFLDRLQTLTKEGFDSISSSSKELLVSALQELESSTSNSPSNKHIHFEYNMSLFLWSESPNDLPSDAAWVSVANRGQFASSGLSMKAQAISPCVQNFCSALDSKLKVKLDDLLAYLPSDDSSLPKDVSPTQAKSSAFDRYADAGTVQEMLRTQSVACIKHIVDCIRAELQSIEEGVQGQQDALNSAKLHSVLFMARLCQSLGELCPHLKQCILGKSESSEKPAREFRALRKQGKVKTQEIIPTQAKWQEVKEVLLQQSVMGYQVWSSAVVKVLIHGFTQSLL | – | – | – | no binding | – | –

From article PMC4935880, “COG lobe B sub-complex engages v-SNARE GS15 and functions via regulated interaction with lobe A sub-complex” (Scientific Reports, 2016)
